Experimental data published in the supplement of paper PMC5998384.

Assays:
HeLa Kyoto [1] = assay: thermal stability score vs G1/S (z-score of summed log2 fold changes over temperatures); higher = more thermally stable than in G1/S
HeLa Kyoto [2] = assay: melting temperature (median over replicates), in situ; higher = more thermally stable
HeLa Kyoto [3] = assay: solubility in G1/S (NP-40 vs SDS abundance) (log2 ratio); higher = more soluble; settings: cell cycle stage: G1/S
HeLa Kyoto [4] = assay: solubility change mitosis vs G1/S (difference of NP-40 vs SDS log2 ratios) (log2 ratio difference); higher = more soluble in mitosis
[5] = cell cycle stage: early G1 (4.5 h after nocodazole release)
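For melting temperature (median over replicates), in situ in this document: HeLa Kyoto cells synchronized by double thymidine or nocodazole block, proteins quantified by TMT10plex mass spectrometry, three independent biological replicates.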
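For solubility change mitosis vs G1/S (difference of NP-40 vs SDS log2 ratios) in this document: synchronized HeLa Kyoto cells (double thymidine block for G1/S, nocodazole release for mitosis), protein amounts in NP-40 versus SDS lysates quantified by mass spectrometry, three biological replicates.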
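For solubility in G1/S (NP-40 vs SDS abundance) in this document: HeLa Kyoto cells arrested at G1/S by double thymidine block, proteins quantified by TMT10plex mass spectrometry in mild NP-40 versus SDS extracts, three biological replicates.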
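For thermal stability score vs G1/S (z-score of summed log2 fold changes over temperatures) in this document: synchronized HeLa Kyoto cells, proteins quantified by TMT10plex mass spectrometry, three biological replicates, mitosis taken 0.5 h after nocodazole release, G1/S directly after double thymidine block.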

| Substance | thermal stability score (HeLa Kyoto [1]; [5]) | thermal stability score (HeLa Kyoto [1]; cell cycle stage: mitosis) | melting temperature (HeLa Kyoto [2]; cell cycle stage: G1/S) [°C] | melting temperature (HeLa Kyoto [2]; cell cycle stage: mitosis) [°C] | solubility in G1/S (log2) (HeLa Kyoto [3]) | solubility change mitosis (log2) (HeLa Kyoto [4]) |
| --- | --- | --- | --- | --- | --- | --- |
| TSN (sequence left out) | 1.99 | 1.25 | 53.6 | 54.1 | -0.145 | -0.134 |
| USP7 (sequence left out) | 1.73 | 3.53 | 48.7 | 49.4 | -0.24 | -0.168 |
